# Reference: the supplement of paper PMC11417369
# The list shows a part of the results.
# System: PfAP2-HC AP2 domain (GST-tagged)
# Assay: gcPBM binding intensity (ln(normalized median fluorescence intensity)); higher = stronger DNA binding
# Procedure, shortened: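 Plasmodium falciparum DNA-binding domains carrying a GST tag were expressed in E. coli and applied for 1 h, at about 25 μg on average, to an Agilent 4 × 180k array. The array held primer-extended double-stranded 36-bp intergenic genomic probes together with negative controls, and binding took place in 1× PBS with 1% milk, 0.2 mg/ml BSA, 0.5% salmon testes DNA and 0.03% Triton X-100. An Alexa488 anti-GST antibody detected bound protein, and the array was scanned at 488 nm. Binding intensity is taken as the highest Masliner-normalised natural-log median intensity across replicate spots of either probe orientation.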
row,Sequence,gcPBM binding intensity (ln)
1,TTTTTTTTTTTTTGCACACTTAAATTTGGAGTGTAG [CACACA_site2345],9.83
2,TTTAATAATAATACTAGTACACATTCTTTATTATTT [XGTACX_site2671],9.9
3,TGAATTAAGATTTATTGTACATAATTTATACCATAT [XGTACX_site7034],9.65
4,TAAATTTATAGACACACACACATATAAATAAATATA [CACACA_site6530],10.8
5,AAGATTTTCCTTGATAGTACACTTATGAAAATTTGT [XGTACX_site3047],9.59
6,AATATCTTAGTGGATACACACATATAAATGTGGATT [CACACA_site485],9.65
7,ATATATTACGACTTCTGTACATAATATATAAAAGAA [XGTACX_site2353],9.7
8,TTTTTTTTTTTTTTTTTTTTTTTGTCTTATTTTTTT [GTGCAC_negctrl_site338],9.01
9,AAAGTAAAAAATCATAGTACACATTTAAATATATAT [XGTACX_site2323],10
10,TAATATATCAAATGAAGTACTCACATATACATAATA [XGTACX_site6051],9.72
11,GGTATATATTTATAATGTACATATTCATATATATAA [XGTACX_site3291],9.4
12,TTTTTTAAATTATGTAGTACGATTCATTTTTTATAA [XGTACX_site1101],9.48
13,CATCATCTTTTAAAGGTGCATAATAATATTGTTAAT,9.46
14,ATGTTCTTTAAAACCACACACCCCCCAACCCCCCTC [CACACA_site2373],9.8
15,GTCTATTATTTTTGAAGTACAAAAATTTTAGTTAAA [XGTACX_site4708],9.5
16,TCGCCCTACAATTTGTTTATATATTAAATAAAATTT [CACACA_negctrl_site883],9.76
17,AATATATTTAATCATACACACATTTATGTACCTATA [CACACA_site1718],9.96
18,TGAAATTCCATAAAATGTACATATTAGTTTAATTCA [XGTACX_site4031],9.44
19,TTACAACATGAAAATGTGCACATATATATATATATA,9.7
20,AAAAATAAATATATATGTACACATATGTATACAATA [XGTACX_site4692],9.72
21,GAAATAAATATAATATATATATATATATATATATGT [TGCATGCA_negctrl_site216],9.6
22,GGTATACACAGACATGCATGTAATTATATATAGGGA [TGCATGCA_site83],10.3
23,TATTATTATTATGGTAGTACATGTAGGTTATTAAAA [XGTACX_site5742],9.69
24,AATTGGGAAGGACATGCATGAGAAATTAATATTGCA [TGCATGCA_site424],9.63
25,ATATTTATAAATTGCACACAAATAATAACATTCTAT [CACACA_site2357],9.8
